Assay results taken from the supplement of paper PMC12632987.
In all, about 4,500 sequences were measured (“median log2 fold change of GCK-ALFA target abundance (FLAG IP / Myc IP barcode read proportion)”: median about 0.078, lowest 2% from about -0.6 on). The list shows a part of the results.

B1: GBRAP_39_5689 (protein)
chain: EKEEENENVVSYLEGVAAKYLYETGISFEEALKEAKEVLKAYAEKHPELKPLVEKLIELAEEKGEEAKLVLIGVAVLIKEGTPDEEIKEIIEKAIEYFEE
B2: GBRAP_184_5167 (protein)
chain: MVKEFEIEVNDVAEAKEKIAEIAKEVAGTKAELFLTVKVEKLTVEIAKAIMDGLKAIKDAGYVTSVTVDFTGEIDEETMDVAIELADEAGVRLVLAIDEE
B3: GBRAP_128_3529 (protein)
chain: SVEEAKERAREVVERIKNSDEEEARKITEEFLEELKEWSDEEVEAAVEVLEELKPELSAEKLEVVADTIRERRDEFTPEKQNHLAGLEVELLNEAEEKEE
B4: GBRAP_160_4286 (protein)
chain: MEELEKLKKEIKEIAEEALEMMKGQTREERANIVRVAGGEVVLLLSENPNISDETEDKVAEIWDEVAEYILANPDLTDEEIEELINKALEEVKKLIEEEM
B5: GBRAP_184_5265 (protein)
chain: KVLERTIKAENVEELIAKMEEVRKEALATGADVIILLEVEKLTKEMIDALFAQLKALRDAGYKGKITVGIDADLTEEMIDYVIKKADEAGVNVVLAISEE
B6: GBRAP_11_2770 (protein)
chain: KKEELKKAAELAEKAAEAVKQLLEKGVDDEELRKKIEELLEEITKLTEKYGDEDMKKLVEIAKELLKKLKEDPENAEQYAEELRATFDVLSGQFLLEAEE
B7: GBRAP_125_3071 (protein)
chain: SEEETLENLALIAKALGFSEGDVAEAVELARASSVKQTLIAILMAEGAEETADAVEKLTEEQAKEVLKKLAEELKANPDLSKEEVIELLKKLAEEAIAAA
B8: GBRAP_125_3112 (protein)
chain: NMEEILEALRIILKALGFDEEEIEEAVRLAREYGIKGTMIAAALALGWEEVAELLEKLSEEEVKEALLRTAEKIKENPELTPEEVKELLKEVLKEILEKK

biological target: GABARAP, O95166; assay: median log2 fold change of GCK-ALFA target abundance (FLAG IP / Myc IP barcode read proportion) (log2 ratio); each designed protein is fused to an ALFA-tag nanobody in HEK293 cells to bring the named protein to FLAG-tagged glucokinase (GCK); Myc marks an untargeted standard; higher = target protein stabilised (more abundant); conditions: target protein: 3xFLAG-MCP-GCK-ALFA reporter; HEK293 landing pad (RPLP)
Sequence (O95166 whole entry, the tested form may be a part): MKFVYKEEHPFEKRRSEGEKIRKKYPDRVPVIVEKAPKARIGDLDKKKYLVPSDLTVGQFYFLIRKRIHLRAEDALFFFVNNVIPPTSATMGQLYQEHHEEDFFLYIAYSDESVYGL
How it was run: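 An ALFA-nanobody-fused binder library was recombined into HEK293 landing-pad cells and induced with 2 μg mL^−1 doxycycline. Cells were transfected with a plasmid expressing a FLAG-tagged target and a Myc-tagged standard. After 48 h, lysates underwent anti-FLAG and anti-Myc immunoprecipitation, and circular RNA barcodes were reverse transcribed, amplified and sequenced. Target abundance is the per-binder median log2 ratio of FLAG to Myc barcode read proportions. Barcodes needed ≥10^−7 proportion in both replicates, binders ≥3 barcodes per replicate, and a 10^−6 pseudocount was added; the two replicates were pooled.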

Binder | median log2 fold change
B1 | 0.178
B2 | 0.0394
B3 | 0.173
B4 | 0.16
B5 | -0.0191
B6 | 0.162
B7 | 0.306
B8 | -0.66
